Measured values: the supplement of paper PMC4996465
Viability of KB3-1 and Nalm-6 cells after 48 h of drug alone (CellTiter-Glo), 11 doses over about 4.5 log units. % of DMSO wells, lower = more cell loss; AC50 from the fitted curve, lower = more potent. No active / inactive call. Nalm-6 was screened in two runs. AC50 is listed only for well-fitted inhibitory curves. KB3-1 is a HeLa-derived carcinoma line, Nalm-6 a B-cell precursor leukaemia line.

Experiments:
KB3-1 [1] = assay: viability (% of DMSO control); higher = more viable cells
Experimental: (§1)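 Eleven-dose screen of the NCATS MIPE 3 library on cells without co-treatment; CellTiter-Glo after 48 h, as % of DMSO wells.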

Nalm-6 [2] = assay: as above
Experimental: as §1

KB3-1 [3] = assay: log AC50 of viability decrease (48 h) (log10 M); higher = less potent
Experimental: (§2)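 Eleven-dose screen of the NCATS MIPE 3 library on cells without co-treatment; CellTiter-Glo after 48 h. AC50 from the curve fit; only inhibitory curves of the better fit classes are listed.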

Nalm-6 [4] = assay: as above
Experimental: as §2

Cl.Oc1cn2c(n1)Nc1ccc(Cl)c(Cl)c1C2 [anagrelide]
Settings | viability [%]
KB3-1 [1], 0.00078 µM | 91.5
KB3-1 [1], 0.00234 µM | 83.9
KB3-1 [1], 0.00702 µM | 70.4
KB3-1 [1], 0.0211 µM | 58.2
KB3-1 [1], 0.0632 µM | 50.8
KB3-1 [1], 0.19 µM | 47.2
KB3-1 [1], 0.569 µM | 54
KB3-1 [1], 1.71 µM | 48.2
KB3-1 [1], 5.12 µM | 48.7
KB3-1 [1], 15.4 µM | 48.4
KB3-1 [1], 46.1 µM | 41.4
Nalm-6 [2], run: 1, 0.00078 µM | 108
Nalm-6 [2], run: 1, 0.00234 µM | 110
Nalm-6 [2], run: 1, 0.00702 µM | 127
Nalm-6 [2], run: 1, 0.0211 µM | 112
Nalm-6 [2], run: 1, 0.0632 µM | 122
Nalm-6 [2], run: 1, 0.19 µM | 116
Nalm-6 [2], run: 1, 0.569 µM | 129
Nalm-6 [2], run: 1, 1.71 µM | 123
Nalm-6 [2], run: 1, 5.12 µM | 116
Nalm-6 [2], run: 1, 15.4 µM | 117
Nalm-6 [2], run: 1, 46.1 µM | 61.8
Nalm-6 [2], run: 2, 0.00078 µM | 106
Nalm-6 [2], run: 2, 0.00234 µM | 113
Nalm-6 [2], run: 2, 0.00702 µM | 112
Nalm-6 [2], run: 2, 0.0211 µM | 109
Nalm-6 [2], run: 2, 0.0632 µM | 114
Nalm-6 [2], run: 2, 0.19 µM | 108
Nalm-6 [2], run: 2, 0.569 µM | 114
Nalm-6 [2], run: 2, 1.71 µM | 111
Nalm-6 [2], run: 2, 5.12 µM | 99.1
Nalm-6 [2], run: 2, 15.4 µM | 84
Nalm-6 [2], run: 2, 46.1 µM | 96.5

Settings | log AC50 of viability decrease
KB3-1 [3] | -8.18

COc1ccc(/C=C\c2cc(OC)c(OC)c(OC)c2)cc1O [Combretastatin A-4]
Settings | viability [%]
KB3-1 [1], 0.00078 µM | 49.4
KB3-1 [1], 0.00234 µM | 31.9
KB3-1 [1], 0.00702 µM | 24.5
KB3-1 [1], 0.0211 µM | 25
KB3-1 [1], 0.0632 µM | 24.3
KB3-1 [1], 0.19 µM | 24.9
KB3-1 [1], 0.569 µM | 22.8
KB3-1 [1], 1.71 µM | 22.5
KB3-1 [1], 5.12 µM | 24.5
KB3-1 [1], 15.4 µM | 25
KB3-1 [1], 46.1 µM | 19.6
Nalm-6 [2], run: 1, 0.00078 µM | 23.8
Nalm-6 [2], run: 1, 0.00234 µM | 19.7
Nalm-6 [2], run: 1, 0.00702 µM | 14.9
Nalm-6 [2], run: 1, 0.0211 µM | 15.7
Nalm-6 [2], run: 1, 0.0632 µM | 19.5
Nalm-6 [2], run: 1, 0.19 µM | 20.3
Nalm-6 [2], run: 1, 0.569 µM | 16.7
Nalm-6 [2], run: 1, 1.71 µM | 14.3
Nalm-6 [2], run: 1, 5.12 µM | 12.5
Nalm-6 [2], run: 1, 15.4 µM | 6.43
Nalm-6 [2], run: 1, 46.1 µM | 1.79
Nalm-6 [2], run: 2, 0.00078 µM | 18.6
Nalm-6 [2], run: 2, 0.00234 µM | 11
Nalm-6 [2], run: 2, 0.00702 µM | 9.48
Nalm-6 [2], run: 2, 0.0211 µM | 11.7
Nalm-6 [2], run: 2, 0.0632 µM | 14
Nalm-6 [2], run: 2, 0.19 µM | 11.6
Nalm-6 [2], run: 2, 0.569 µM | 12.1
Nalm-6 [2], run: 2, 1.71 µM | 10.3
Nalm-6 [2], run: 2, 5.12 µM | 9.04
Nalm-6 [2], run: 2, 15.4 µM | 4.39
Nalm-6 [2], run: 2, 46.1 µM | 1.65

Settings | log AC50 of viability decrease
KB3-1 [3] | -8.73

COC1=CC2=C(C=C1OC)[C@H]3[C@@H](CO2)OC4=C(C=CC5=C4\C=C/C(C)(C)O5)C3=O [Deguelin]
Settings | viability [%]
KB3-1 [1], 0.00078 µM | 99.1
KB3-1 [1], 0.00234 µM | 99
KB3-1 [1], 0.00702 µM | 94
KB3-1 [1], 0.0211 µM | 90.9
KB3-1 [1], 0.0632 µM | 81.2
KB3-1 [1], 0.19 µM | 79.3
KB3-1 [1], 0.569 µM | 75.1
KB3-1 [1], 1.71 µM | 73.4
KB3-1 [1], 5.12 µM | 71.3
KB3-1 [1], 15.4 µM | 67.1
KB3-1 [1], 46.1 µM | 39.2
Nalm-6 [2], run: 1, 0.00078 µM | 47.2
Nalm-6 [2], run: 1, 0.00234 µM | 92.1
Nalm-6 [2], run: 1, 0.00702 µM | 93.1
Nalm-6 [2], run: 1, 0.0211 µM | 91
Nalm-6 [2], run: 1, 0.0632 µM | 73.7
Nalm-6 [2], run: 1, 0.19 µM | 62.8
Nalm-6 [2], run: 1, 0.569 µM | 62.5
Nalm-6 [2], run: 1, 1.71 µM | 66.7
Nalm-6 [2], run: 1, 5.12 µM | 69.7
Nalm-6 [2], run: 1, 15.4 µM | 61.8
Nalm-6 [2], run: 1, 46.1 µM | 13.1
Nalm-6 [2], run: 2, 0.00078 µM | 96.4
Nalm-6 [2], run: 2, 0.00234 µM | 106
Nalm-6 [2], run: 2, 0.00702 µM | 98.6
Nalm-6 [2], run: 2, 0.0211 µM | 97.6
Nalm-6 [2], run: 2, 0.0632 µM | 86.4
Nalm-6 [2], run: 2, 0.19 µM | 77.2
Nalm-6 [2], run: 2, 0.569 µM | 69.1
Nalm-6 [2], run: 2, 1.71 µM | 70.2
Nalm-6 [2], run: 2, 5.12 µM | 77.3
Nalm-6 [2], run: 2, 15.4 µM | 70.7
Nalm-6 [2], run: 2, 46.1 µM | 7.39

Settings | log AC50 of viability decrease
KB3-1 [3] | -5.38

Cc1ccc(-c2cc(C(F)(F)F)nn2-c2ccc([S+](N)(=O)[O-])cc2)cc1 [Celecoxib]
KB3-1 [1]
Settings | viability [%]
0.00156 µM | 100
0.00468 µM | 104
0.014 µM | 101
0.0421 µM | 107
0.126 µM | 101
0.379 µM | 103
1.14 µM | 107
3.41 µM | 115
10.2 µM | 112
30.7 µM | 81.9
92.2 µM | 20

Settings | log AC50 of viability decrease
KB3-1 [3] | -4.42

COc1ccc(-c2c(-c3ccc(O)cc3O)n[nH]c2C)cc1 [PDHK RIKEN]
Settings | viability [%]
KB3-1 [1], 0.00078 µM | 99.1
KB3-1 [1], 0.00234 µM | 105
KB3-1 [1], 0.00702 µM | 106
KB3-1 [1], 0.0211 µM | 98.6
KB3-1 [1], 0.0632 µM | 104
KB3-1 [1], 0.19 µM | 102
KB3-1 [1], 0.569 µM | 99.2
KB3-1 [1], 1.71 µM | 101
KB3-1 [1], 5.12 µM | 90.7
KB3-1 [1], 15.4 µM | 84
KB3-1 [1], 46.1 µM | 66.3
Nalm-6 [2], run: 1, 0.00078 µM | 72.3
Nalm-6 [2], run: 1, 0.00234 µM | 95.7
Nalm-6 [2], run: 1, 0.00702 µM | 99.5
Nalm-6 [2], run: 1, 0.0211 µM | 106
Nalm-6 [2], run: 1, 0.0632 µM | 106
Nalm-6 [2], run: 1, 0.19 µM | 108
Nalm-6 [2], run: 1, 0.569 µM | 104
Nalm-6 [2], run: 1, 1.71 µM | 100
Nalm-6 [2], run: 1, 5.12 µM | 92.2
Nalm-6 [2], run: 1, 15.4 µM | 82.4
Nalm-6 [2], run: 1, 46.1 µM | 53.3
Nalm-6 [2], run: 2, 0.00078 µM | 93.2
Nalm-6 [2], run: 2, 0.00234 µM | 99.7
Nalm-6 [2], run: 2, 0.00702 µM | 100
Nalm-6 [2], run: 2, 0.0211 µM | 101
Nalm-6 [2], run: 2, 0.0632 µM | 106
Nalm-6 [2], run: 2, 0.19 µM | 104
Nalm-6 [2], run: 2, 0.569 µM | 105
Nalm-6 [2], run: 2, 1.71 µM | 97.1
Nalm-6 [2], run: 2, 5.12 µM | 92.8
Nalm-6 [2], run: 2, 15.4 µM | 93.9
Nalm-6 [2], run: 2, 46.1 µM | 45

Settings | log AC50 of viability decrease
KB3-1 [3] | -4.78

CS(=O)(=O)CCNCc1ccc(-c2ccc3ncnc(Nc4ccc(OCc5cccc(F)c5)c(Cl)c4)c3c2)o1 [Lapatinib]
Settings | log AC50 of viability decrease | viability [%]
KB3-1 [1], 0.00078 µM | – | 106
KB3-1 [1], 0.00234 µM | – | 109
KB3-1 [1], 0.00702 µM | – | 105
KB3-1 [1], 0.0211 µM | – | 111
KB3-1 [1], 0.0632 µM | – | 110
KB3-1 [1], 0.19 µM | – | 104
KB3-1 [1], 0.569 µM | – | 103
KB3-1 [1], 1.71 µM | – | 107
KB3-1 [1], 5.12 µM | – | 97.4
KB3-1 [1], 15.4 µM | – | 96.3
KB3-1 [1], 46.1 µM | – | 3.5
Nalm-6 [2], run: 1, 0.00078 µM | – | 128
Nalm-6 [2], run: 1, 0.00234 µM | – | 115
Nalm-6 [2], run: 1, 0.00702 µM | – | 118
Nalm-6 [2], run: 1, 0.0211 µM | – | 126
Nalm-6 [2], run: 1, 0.0632 µM | – | 117
Nalm-6 [2], run: 1, 0.19 µM | – | 122
Nalm-6 [2], run: 1, 0.569 µM | – | 123
Nalm-6 [2], run: 1, 1.71 µM | – | 115
Nalm-6 [2], run: 1, 5.12 µM | – | 110
Nalm-6 [2], run: 1, 15.4 µM | – | 80.7
Nalm-6 [2], run: 1, 46.1 µM | – | -0.429
Nalm-6 [2], run: 2, 0.00078 µM | – | 112
Nalm-6 [2], run: 2, 0.00234 µM | – | 106
Nalm-6 [2], run: 2, 0.00702 µM | – | 111
Nalm-6 [2], run: 2, 0.0211 µM | – | 113
Nalm-6 [2], run: 2, 0.0632 µM | – | 118
Nalm-6 [2], run: 2, 0.19 µM | – | 109
Nalm-6 [2], run: 2, 0.569 µM | – | 107
Nalm-6 [2], run: 2, 1.71 µM | – | 104
Nalm-6 [2], run: 2, 5.12 µM | – | 109
Nalm-6 [2], run: 2, 15.4 µM | – | 85.7
Nalm-6 [2], run: 2, 46.1 µM | – | 0.302
Nalm-6 [4], run: 1 | -4.68 | –
Nalm-6 [4], run: 2 | -4.68 | –
